# Results reported in PubChem BioAssay AID588855 (National Center for Advancing Translational Sciences (NCATS), 2011).
# Hit rate of the full screen: of about 410,000 compounds, about 5,000 (1.2%) were called active. Inconclusive means that the source gave no clear call. Such entries were picked first, then a sample of the others. Calls come from the whole dose curve; as a rule, active = well fitted inhibition curve with a large enough effect; inconclusive = small, poorly fitted or top-dose-only effect; inactive = no such curve, though single readings can be large or run the other way. A potency beside an inconclusive call is a rough fit, not a confirmed value.
# Experiment: qHTS for Inhibitors of TGF-b; note: nearly all actives have a fitted effect of over 65% in size
# Conditions: HepG2 CAGA-GFP TGF-b/SMAD3 reporter, GFP fluorescence, 18 h, TGF-beta stimulated, 500 pg/mL final; series mostly up to 46.1 µM; activity, negative = inhibition: at the top concentration
# Method in brief: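 HEPG2 CAGA-GFP cells (1000/well, DMEM with 1% FBS) were pre-incubated 2 h at 37 degrees C, given compound by pin tool, then stimulated with TGF-beta at 500 pg/mL final for 18 h before per-cell GFP fluorescence imaging.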
# % is set by controls: 0 for no effect and ±100 for the full control effect; potency is the fitted concentration of half-maximal effect; tags give direction and shape of the fitted curve.
SMILES,"activity, negative = inhibition",Potency
Cc1ccc(N(CC(=O)NCc2ccc(F)cc2)C(=O)c2ccco2)cc1C,inactive: 2.01%,–
CCc1ccc(N2C(=O)Nc3ccc(Br)cc3C2(O)C(=O)NCCN(C)C)cc1 (configuration not stated),inactive: -1.36%,–
CCOc1ccc(-n2ccnc2SCC(=O)Nc2nnc(CC)s2)cc1,inactive: 11.7%,–
CCOc1ccccc1NC(=O)COC(=O)c1c(CC)noc1C,inactive: 17.7%,–
O=C(c1cc(C2CC2)nn1-c1ccccc1)N1CCN(Cc2c(F)cccc2Cl)CC1,–,"inconclusive: 35.5 µM [inhibitor, single point]"
CCc1nc2c(OCc3ccc(Cl)cc3Cl)cccn2c1N(C)C(C)=O,–,"inconclusive: 35.5 µM [inhibitor, single point]"
CC1(Cc2ccccc2C#N)C(=O)Nc2ccc(-c3ccc4[nH]ccc4c3)cc21 (configuration not stated),–,"inconclusive: 17.8 µM [inhibitor, single point]"
CCc1nc(C)cn1S(=O)(=O)c1ccc(Cl)c(Cl)c1Cl,–,"inconclusive: 6.31 µM [inhibitor, full curve, poor fit]"
O=C(Cc1cccs1)Nc1nc(-c2ccccc2)cs1,inactive: 0.936%,–
COC(=O)C1=C(C(=O)OC)[C@@H]2N(C)c3ccccc3[C@@]23C[C@@H](C(=O)OC)N(C(=O)c2cccs2)C3=N1,inactive: 1%,–
Cc1cc(Oc2ccc(C(C)(C)C)cc2)nc(N2CCOCC2)n1,–,"inconclusive: 28.2 µM [inhibitor, single point]"
COc1ccc2c(c1)C(SCC(=O)NCCc1ccc(Cl)cc1)CC(C)(C)O2 (configuration not stated),–,"inconclusive: 22.4 µM [inhibitor, single point]"
O=c1c2cn[nH]c2nc(SCc2ccccc2F)n1-c1ccc(Br)cc1,–,active: 10 µM
COc1ccccc1CNc1nc(NCc2ccccc2OC)c2sccc2n1,–,"inconclusive: 20 µM [inhibitor, partial curve, poor fit]"
CN1CCN(c2ccc(S(=O)(=O)N3CCCCC3)cc2NC(=O)/C=C/c2ccc(OC(F)F)cc2)CC1,–,"inconclusive: 15.8 µM [inhibitor, single point]"
O=S(=O)(c1ccc(Cl)cc1)N1CCN=C1SCc1cccnc1,–,"inconclusive: 35.5 µM [inhibitor, single point]"
COc1cc(OC)cc(-c2nnc(SCC(=O)N3CCCc4ccccc43)o2)c1,inactive: -27.1%,–
CCC/C=C/c1ccc(CN2C(C(C)C)C(=O)N(Cc3cn(CCC4OCCCO4)nn3)CCS2(=O)=O)cc1 (configuration not stated),–,"inconclusive: 35.5 µM [inhibitor, single point]"
COc1cc2c(cc1OC)CN(C(=O)c1cc(S(=O)(=O)N3CCOCC3)ccc1C)CC2,inactive: -4.06%,–
COc1ccc(N2CCN(C(=O)c3cc4c(s3)-c3ccccc3S(=O)(=O)C4)CC2)cc1,–,"inconclusive: 35.5 µM [inhibitor, single point]"
CC(=O)OCCNc1cc(SCc2ccco2)c2nonc2c1[N+](=O)[O-],–,"inconclusive: 22.4 µM [inhibitor, partial curve, poor fit]"
CN(C)/C=N/c1cc(=O)n(C)c(=O)n1Cc1ccccc1,–,"inconclusive: 6.31 µM [inhibitor, partial curve, poor fit]"
COc1ccc(NC(=O)c2cc(S(=O)(=O)NCCC3=CCCCC3)ccc2F)cc1,–,"inconclusive: 11.2 µM [inhibitor, single point]"

SMILES,"activity, negative = inhibition",Potency
Cc1ccccc1OC1CCN(C(=O)C2CCC(=O)N(C3CCCC3)C2)CC1 (configuration not stated),–,"inconclusive: 14.1 µM [inhibitor, single point]"
FC(F)(F)c1ccc(-c2noc(-c3ccccc3Br)n2)cc1,–,"inconclusive: 22.4 µM [inhibitor, single point]"
c1ccc(CCN2CN=C(Nc3nc4ccccc4s3)NC2)cc1,–,"inconclusive: 35.5 µM [inhibitor, single point]"
O=C(NCCSSCCNC(=O)c1ccccc1)c1ccccc1,–,"inconclusive: 35.5 µM [inhibitor, single point]"
CCN(CC)C(=O)c1nc[nH]c1C(=O)N1CCc2ccccc2C1,–,"inconclusive: 17.8 µM [inhibitor, single point]"
CCOC(=O)C1CCN(C(=O)c2ccc3c(c2)sc2nc(-c4ccc(C)cc4)cn23)CC1,–,"inconclusive: 11.2 µM [inhibitor, partial curve]"
CC(C(=O)N1CCc2ccccc21)N1CCN(c2cccc(C(F)(F)F)c2)CC1 (configuration not stated),–,active: 7.08 µM
O=[N+]([O-])c1nn(-c2ccc3c(c2)OCCO3)n(O)c1=Nc1ccc(Cl)cc1,–,"inconclusive: 35.5 µM [inhibitor, single point]"
COC(=O)c1cc(OC)c(OC)cc1N1C(=O)CCCC1=O,inactive: 3.28%,–
Oc1c(C(Nc2nc3ccccc3s2)c2ccco2)ccc2cccnc12 (configuration not stated),–,"inconclusive: 12.6 µM [inhibitor, partial curve, poor fit]"
O=C(Nc1ccccc1-c1nc2ccccc2[nH]1)c1ccc(S(=O)(=O)N2CCCCC2)cc1,inactive: 13.9%,–
O=C(CSc1ccc(-c2ccc(F)cc2)nn1)Nc1ccc2c(c1)OCCO2,–,"inconclusive: 25.1 µM [inhibitor, partial curve, poor fit]"
COc1ccc(CC(=O)Nc2nc(C(C)(C)C)cs2)cc1,–,"inconclusive: 35.5 µM [inhibitor, single point]"
CC(C)CNS(=O)(=O)c1cc(C(=O)OCC(=O)N2CCOCC2)c(Cl)cc1Cl,inactive: -13.2%,–
COC(=O)c1ccc(COC(=O)c2nn(C)c(=O)c3ccccc23)cc1,inactive: -9.26%,–
CCN(CC(=O)Nc1cccc(C(C)=O)c1)S(=O)(=O)c1ccc(OC)cc1,inactive: 7.63%,–
Fc1ccc(-c2ccnc(=S)[nH]2)cc1,inactive: -1.79%,–
CC(=O)N1CCc2cc(CNS(=O)(=O)c3ccc(C(C)(C)C)cc3)ccc21,–,"inconclusive: 14.1 µM [inhibitor, single point]"
CC(C)c1ccc(NC(=O)c2ccc3c(c2)C(=O)N(Cc2cccnc2)C3=O)cc1,–,"inconclusive: 11.2 µM [inhibitor, single point]"
COc1cccc(C(=O)CSc2nnc(COc3cccc4cccnc34)o2)c1,–,"inconclusive: 35.5 µM [inhibitor, single point]"
O=C1CN(C(=O)c2ccc(S(=O)(=O)N3CCCCC3)cc2)C(c2ccc(F)cc2)c2cc(Br)ccc2N1 (configuration not stated),–,"inconclusive: 35.5 µM [inhibitor, single point]"
Fc1ccc(-c2csc(Nc3ccccn3)n2)c(F)c1,–,"inconclusive: 35.5 µM [inhibitor, single point]"
COc1ccc(-c2nnc(SCC(=O)c3ccc[nH]3)n2-c2ccccc2)cc1,–,"inconclusive: 3.16 µM [inhibitor, partial curve, poor fit]"

SMILES,"activity, negative = inhibition",Potency
Cc1ccc(OCC(=O)Nc2ccc3nc(SCC(=O)N4CCOCC4)sc3c2)cc1C,–,"inconclusive: 3.16 µM [inhibitor, partial curve, poor fit]"
C=C1CC(COc2ccc3c(C)c(Cl)c(=O)oc3c2)(c2ccccc2)OC1=O (configuration not stated),–,"inconclusive: 2.82 µM [inhibitor, partial curve, poor fit]"
c1ccc(-c2ccccc2OCCOCCN2CCCCC2)cc1,inactive: 11.4%,–
C=CCSC(=C(C#N)C#N)c1cc2c([nH]1)CCCC2,–,"inconclusive: 35.5 µM [inhibitor, single point]"
Cc1c(Br)cnc2ccccc12,inactive: 0.367%,–
O=C(CN1c2ccccc2Sc2ccccc21)NNC(=S)Nc1ccc(Cl)cc1,–,"inconclusive: 35.5 µM [inhibitor, single point]"
O=C(C[C@H]1C/C=C\C[C@@H](Cc2ccc(F)cc2)C(=O)OC[C@@H](Cc2c[nH]c3ccccc23)NC1=O)NCCO,–,"inconclusive: 14.1 µM [inhibitor, single point]"
CSc1nc(C2CC2)cc(-c2cccs2)c1C#N,–,active: 5.62 µM
Nc1nc2c(ncn2[C@@H]2O[C@H](CNC(=O)[C@H](N)Cc3cncn3COCc3ccccc3)[C@@H](O)[C@H]2O)c(=O)[nH]1,–,"inconclusive: 12.6 µM [inhibitor, single point]"
Cc1ccc2oc(-c3cccc(NC(=O)C4CCCO4)c3)nc2c1 (configuration not stated),–,"inconclusive: 7.08 µM [inhibitor, partial curve, poor fit]"
COc1cc(C(=O)NCC2CCCO2)ccc1OCc1ccc(Cl)cc1 (configuration not stated),–,"inconclusive: 35.5 µM [inhibitor, single point]"
CC(=O)Nc1scc(C)c1-c1nc2ccccc2s1,inactive: 2.74%,–
COc1ccc(NC(=O)COC(=O)CN2C(=O)C3CCCCC3C2=O)cc1OC (configuration not stated),inactive: -4.37%,–
Nc1cccc2c1C(=O)N(C(=O)/C=C/c1ccc(F)cc1)C2=O,–,"inconclusive: 28.2 µM [inhibitor, single point]"
CCOC(=O)C1CCCN(C(=O)c2cc3ccc(OC)cc3[nH]2)C1 (configuration not stated),–,"inconclusive: 5.01 µM [inhibitor, partial curve, poor fit]"
O=C(NCCc1ccc(Cl)cc1)c1ccc2c(c1)N(Cc1c(F)cccc1Cl)C(=O)CS2,–,"inconclusive: 0.708 µM [inhibitor, full curve, poor fit]"
Cc1c(C)n(C)c2ccc(C(=O)NCCc3ccc(Cl)cc3)cc12,–,"inconclusive: 35.5 µM [inhibitor, single point]"
COc1ccccc1N1C(=O)CC(Sc2n[nH]c(-c3cccc(C)c3)n2)C1=O (configuration not stated),–,"inconclusive: 25.1 µM [inhibitor, single point]"
CCOC(=O)C(C)Sc1ncnc2nc[nH]c12 (configuration not stated),–,"inconclusive: 12.6 µM [inhibitor, partial curve]"
Cc1ccc(CNC(=S)Nc2cc(C)ccc2OC(F)F)cc1,inactive: 11.9%,–
O=C(NCc1cccc(F)c1)c1ccc2nc(N3CCCCC3)sc2c1,inactive: 22.9%,–
